Laboratory results: publication PMC6451091
This is one part of the list. For part of these data: At the low end of the ranking, values are background and their order means little. For part of these data: The protein was read in a cell extract, so binding may be indirect.

biological target: PU.1 (IVT) (UniProt P17947); assay: protein-binding microarray (PBM); settings: 20 mM HEPES pH 7.9, 100 mM NaCl, 1 mM DTT, 0.2 mg/mL BSA, 0.02% Triton X-100, 2% milk, 0.4 mg/mL salmon testes DNA; 1 h; temperature not stated; high values mean tight binding; double strand, one strand shown; sequences stand for … in GCCTAGCAC…GTGCTAGGTCTTGATTCGCTTGACGCTGCTG

| Sequence | binding signal |
| --- | --- |
| TGAGAGGAGAAGTACTGTGT | 1.72 z-score |
| ACGATGAGGAAGTGGTTAGT | 5.44 z-score |
| TGAGAGAGGAAGTAACTTAA | 5.44 z-score |
| CAAAAAGGTAAGTGGATGCT | 0.987 z-score |
| AAAAAGAGGAACTTGGGCAT | 8.01 z-score |
| GGGAAAAGGAAGTAAGTTGG | 4.31 z-score |
| AATTTGAGGAACTACTGTGA | 5.62 z-score |
| GAAAAGGGGAAATGGCTTCA | 5.44 z-score |
| TCCAGGGGGAAGTGCATGAC | 3.24 z-score |
| CCAAGAGGGAAGTGGGGGAG | 3.01 z-score |
| CGAAAGGGGAAGTGCTAGAC | 7.44 z-score |
| GGGAGGAGGAAGTGCAGGGG | 4.11 z-score |
| GAAGACAGGAAGTCCCATAG | 2.73 z-score |
| GAAAAGAGGAAGTCAAATTG | 8.37 z-score |
| CAAACGAGGAACTGATGCGG | 2.12 z-score |
| TAAAAAAGGAAGTCAATTTG | 5.7 z-score |
| CAAATGAGGAACTGATGCGA | 6.15 z-score |
| GAAAACAGGAAGTGCTTTCA | 8.31 z-score |
| TCAGGGAGGAAGTGGTGGGG | 3.65 z-score |
| CAAAAGAGGAAGTGAAGCTG | 8.37 z-score |

| Sequence | binding signal |
| --- | --- |
| AGAAAGAGGAAGTCACTCAC | 8.12 z-score |
| GAAATAAGGAAGTCAATGTC | 6.57 z-score |
| GGAAAAGGGAAGTGCTCTGA | 6.96 z-score |
| CAAATGAGGAACAGATGCGG | 3.59 z-score |
| TGAAAAAGGAAGTCACAGTG | 4.15 z-score |
| TCAGTGGGGAAGTGCTAGGG | 2.86 z-score |
| AATTAGAGGAAGTGGATTAT | 6.24 z-score |
| TGAAAGAGGAAGTGCTACCA | 7.5 z-score |
| CAAATGAGGAAGTGGCAGCT | 7.39 z-score |
| AGACAGAGGAAGTGAAGGGC | 2.94 z-score |
| AGAAAAGAGAAGTGCGACTC | 3.35 z-score |
| AAAAAGAGGAACTCAATAAA | 7.24 z-score |
| GATAAGGGGAAGTCCTCTGT | 5.04 z-score |
| CTGAACAGGAAGTGGGTGGA | 4.48 z-score |
| TCCTGGGGGAAGTGGTGGTG | 2.52 z-score |
| AGAAACAGGAACTGAGGCCA | 4.78 z-score |
| GAAATGAGGAAGTGTGGCTG | 7.89 z-score |
| AGATTGTGGAAGTACTGTGA | 2.73 z-score |
| TCAAAGAGGAAGTGCAACCA | 6.02 z-score |
| CCCAAGAGGAAGTGGGTGGG | 4.91 z-score |

biological target: PU.1 (endogenous, THP-1 nuclear extract) (UniProt P17947); assay: nuclear extract protein-binding microarray (nextPBM); settings: 20 mM HEPES pH 7.9, 100 mM NaCl, 1 mM DTT, 0.2 mg/mL BSA, 0.02% Triton X-100, 2% milk, 0.4 mg/mL salmon testes DNA; 1 h; temperature not stated; high values mean tight binding; double strand, one strand shown; sequences stand for … in GCCTAGCAC…GTGCTAGGTCTTGATTCGCTTGACGCTGCTG

| Sequence | binding signal |
| --- | --- |
| TGAGAGGAGAAGTACTGTGT | 1.49 z-score |
| ACGATGAGGAAGTGGTTAGT | 6.1 z-score |
| TGAGAGAGGAAGTAACTTAA | 5.34 z-score |
| CAAAAAGGTAAGTGGATGCT | 0.259 z-score |
| AAAAAGAGGAACTTGGGCAT | 7.21 z-score |
| GGGAAAAGGAAGTAAGTTGG | 3.9 z-score |
| AATTTGAGGAACTACTGTGA | 5.69 z-score |
| GAAAAGGGGAAATGGCTTCA | 5.74 z-score |
| TCCAGGGGGAAGTGCATGAC | 3.45 z-score |
| CCAAGAGGGAAGTGGGGGAG | 3.39 z-score |
| CGAAAGGGGAAGTGCTAGAC | 6.94 z-score |
| GGGAGGAGGAAGTGCAGGGG | 4.32 z-score |
| GAAGACAGGAAGTCCCATAG | 2.6 z-score |
| GAAAAGAGGAAGTCAAATTG | 7.29 z-score |
| CAAACGAGGAACTGATGCGG | 2.43 z-score |
| TAAAAAAGGAAGTCAATTTG | 5.47 z-score |
| CAAATGAGGAACTGATGCGA | 6.63 z-score |
| GAAAACAGGAAGTGCTTTCA | 7.19 z-score |
| TCAGGGAGGAAGTGGTGGGG | 3.53 z-score |
| CAAAAGAGGAAGTGAAGCTG | 7.06 z-score |

| Sequence | binding signal |
| --- | --- |
| AGAAAGAGGAAGTCACTCAC | 7.2 z-score |
| GAAATAAGGAAGTCAATGTC | 6.56 z-score |
| GGAAAAGGGAAGTGCTCTGA | 6.82 z-score |
| CAAATGAGGAACAGATGCGG | 3.75 z-score |
| TGAAAAAGGAAGTCACAGTG | 4.03 z-score |
| TCAGTGGGGAAGTGCTAGGG | 3.12 z-score |
| AATTAGAGGAAGTGGATTAT | 6.41 z-score |
| TGAAAGAGGAAGTGCTACCA | 7.23 z-score |
| CAAATGAGGAAGTGGCAGCT | 7.04 z-score |
| AGACAGAGGAAGTGAAGGGC | 3.15 z-score |
| AGAAAAGAGAAGTGCGACTC | 3.61 z-score |
| AAAAAGAGGAACTCAATAAA | 6.93 z-score |
| GATAAGGGGAAGTCCTCTGT | 5.73 z-score |
| CTGAACAGGAAGTGGGTGGA | 4.84 z-score |
| TCCTGGGGGAAGTGGTGGTG | 2.83 z-score |
| AGAAACAGGAACTGAGGCCA | 5.67 z-score |
| GAAATGAGGAAGTGTGGCTG | 7.29 z-score |
| AGATTGTGGAAGTACTGTGA | 2.71 z-score |
| TCAAAGAGGAAGTGCAACCA | 6.6 z-score |
| CCCAAGAGGAAGTGGGTGGG | 5.8 z-score |

biological target: T1, FLI1 (endogenous, THP-1 nuclear extract) (UniProt Q01543); assay: as above; settings: 20 mM HEPES pH 7.9, 100 mM NaCl, 1 mM DTT, 0.2 mg/mL BSA, 0.02% Triton X-100, 2% milk, 0.4 mg/mL salmon testes DNA; 1 h; temperature not stated; high values mean tight binding; double strand, one strand shown; sequences stand for … in GCCTAGCAC…GTGCTAGGTCTTGATTCGCTTGACGCTGCTG
T1 sequence: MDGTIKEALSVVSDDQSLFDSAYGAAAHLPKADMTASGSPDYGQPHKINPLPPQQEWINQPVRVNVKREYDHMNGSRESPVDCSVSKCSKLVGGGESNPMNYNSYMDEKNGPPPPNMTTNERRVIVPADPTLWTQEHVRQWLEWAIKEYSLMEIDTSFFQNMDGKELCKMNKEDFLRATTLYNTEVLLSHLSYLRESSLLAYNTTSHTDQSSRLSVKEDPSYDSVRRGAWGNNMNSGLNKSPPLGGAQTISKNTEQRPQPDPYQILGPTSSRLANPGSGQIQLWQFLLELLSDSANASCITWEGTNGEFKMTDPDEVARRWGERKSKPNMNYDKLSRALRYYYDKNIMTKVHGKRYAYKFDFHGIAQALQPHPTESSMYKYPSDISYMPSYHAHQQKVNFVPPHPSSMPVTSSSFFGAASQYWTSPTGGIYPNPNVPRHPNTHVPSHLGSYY

| Sequence | binding signal |
| --- | --- |
| TGAGAGGAGAAGTACTGTGT | -0.175 z-score |
| ACGATGAGGAAGTGGTTAGT | 2.8 z-score |
| TGAGAGAGGAAGTAACTTAA | 2.95 z-score |
| CAAAAAGGTAAGTGGATGCT | 0.535 z-score |
| AAAAAGAGGAACTTGGGCAT | 3.42 z-score |
| GGGAAAAGGAAGTAAGTTGG | 2.63 z-score |
| AATTTGAGGAACTACTGTGA | 1.53 z-score |
| GAAAAGGGGAAATGGCTTCA | 2.4 z-score |
| TCCAGGGGGAAGTGCATGAC | 1.49 z-score |
| CCAAGAGGGAAGTGGGGGAG | 1.33 z-score |
| CGAAAGGGGAAGTGCTAGAC | 2.9 z-score |
| GGGAGGAGGAAGTGCAGGGG | 2.42 z-score |
| GAAGACAGGAAGTCCCATAG | 4.26 z-score |
| GAAAAGAGGAAGTCAAATTG | 3.85 z-score |
| CAAACGAGGAACTGATGCGG | 0.546 z-score |
| TAAAAAAGGAAGTCAATTTG | 2.61 z-score |
| CAAATGAGGAACTGATGCGA | 2.32 z-score |
| GAAAACAGGAAGTGCTTTCA | 5.39 z-score |
| TCAGGGAGGAAGTGGTGGGG | 2.94 z-score |
| CAAAAGAGGAAGTGAAGCTG | 4.32 z-score |

| Sequence | binding signal |
| --- | --- |
| AGAAAGAGGAAGTCACTCAC | 3.99 z-score |
| GAAATAAGGAAGTCAATGTC | 2.66 z-score |
| GGAAAAGGGAAGTGCTCTGA | 3.24 z-score |
| CAAATGAGGAACAGATGCGG | 0.483 z-score |
| TGAAAAAGGAAGTCACAGTG | 2.27 z-score |
| TCAGTGGGGAAGTGCTAGGG | 1.24 z-score |
| AATTAGAGGAAGTGGATTAT | 3.17 z-score |
| TGAAAGAGGAAGTGCTACCA | 3.9 z-score |
| CAAATGAGGAAGTGGCAGCT | 4.27 z-score |
| AGACAGAGGAAGTGAAGGGC | 2.4 z-score |
| AGAAAAGAGAAGTGCGACTC | 0.776 z-score |
| AAAAAGAGGAACTCAATAAA | 2.52 z-score |
| GATAAGGGGAAGTCCTCTGT | 2.32 z-score |
| CTGAACAGGAAGTGGGTGGA | 5.22 z-score |
| TCCTGGGGGAAGTGGTGGTG | 1.44 z-score |
| AGAAACAGGAACTGAGGCCA | 2.56 z-score |
| GAAATGAGGAAGTGTGGCTG | 3.48 z-score |
| AGATTGTGGAAGTACTGTGA | 1.41 z-score |
| TCAAAGAGGAAGTGCAACCA | 3.36 z-score |
| CCCAAGAGGAAGTGGGTGGG | 3.3 z-score |
